# In all, about 33,000 sequences were measured (“E-score (-0.5 to 0.5)”: median about -0.035, highest 2% from about 0.34 on). The list shows a part of the results.
# Biological target: T1, Mot3 (UniProt P54785)
# T1 sequence: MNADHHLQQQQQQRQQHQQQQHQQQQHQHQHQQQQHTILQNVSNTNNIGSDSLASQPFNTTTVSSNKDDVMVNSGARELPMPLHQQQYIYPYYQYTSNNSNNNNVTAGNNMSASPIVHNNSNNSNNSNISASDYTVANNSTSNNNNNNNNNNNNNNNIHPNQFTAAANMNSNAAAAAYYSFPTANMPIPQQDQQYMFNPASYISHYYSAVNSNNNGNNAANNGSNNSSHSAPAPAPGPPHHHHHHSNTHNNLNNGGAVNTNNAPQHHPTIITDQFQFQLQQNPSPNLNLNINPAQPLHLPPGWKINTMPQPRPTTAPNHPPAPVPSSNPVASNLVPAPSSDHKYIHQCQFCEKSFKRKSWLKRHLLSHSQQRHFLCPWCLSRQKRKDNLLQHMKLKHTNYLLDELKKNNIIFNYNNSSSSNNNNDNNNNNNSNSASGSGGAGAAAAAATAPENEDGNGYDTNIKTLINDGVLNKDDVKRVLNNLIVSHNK
# Assay: PBM E-score (8-mer binding enrichment) (E-score (-0.5 to 0.5)); higher = stronger / more preferred TF binding; most listed sequences are background and not binding sites
# Conditions: protein concentration: 200 nM; construct: GST-full length
# Method in brief: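 Using PURExpress in vitro transcription/translation, GST-tagged yeast transcription factors were made in full-length or DNA-binding-domain form. These were applied at about 100-200 nM to double-stranded universal all-10-mer Agilent arrays, and bound protein was detected with fluorescent anti-GST. Scans were normalised with masliner before the Universal PBM Analysis Suite assigned E-scores to ungapped eight-base words pooled with their reverse complements.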
row,Sequence,PBM E-score
1,ACTTTATC,0.172
2,GGGCCTCA,-0.178
3,GGAGCTTA,-0.0983
4,GAACTCCC,-0.0785
5,CAAATGCC,-0.0299
6,CCGAGCGA,-0.246
7,GGGATAAC,0.016
8,AATAGGCT,0.161
9,AAGACCCG,-0.143
10,CCTGTTGC,0.186
11,GTCGGCAA,-0.0195
12,GGGTCTCA,-0.282
13,CTAATTGC,0.127
14,CAGCGCCC,-0.184
15,CCTCCACA,-0.0595
16,CAAGTTGC,0.144
17,ATGTCTAA,0.142
18,AGTGATAC,0.0126
19,GAACAGGA,0.16
20,AGTACCTC,-0.107
21,GTTTAACA,0.316
22,GTGCCTTA,0.49
23,AAGTCACA,0.0863
24,CAGACGAC,-0.12

row,Sequence,PBM E-score
1,ACGTTAGA,0.0408
2,CAAACGCC,-0.143
3,CCCAACAG,-0.174
4,GTCACGAC,0.0302
5,ATAACCAC,-0.0418
6,ATTGGAGC,0.00824
7,AAATCAGT,-0.0253
8,GGAATGAC,-0.119
9,GGTTCCCA,-0.17
10,CGCCGTTA,-0.107
11,GAACCAAC,-0.0375
12,ATCCGCCA,-0.251
13,GATATCGA,-0.096
14,ACTCTTAG,0.0367
15,GATCTCCA,-0.175
16,GACACCCA,-0.0443
17,GGGCCAGA,-0.172
18,AAGAATCT,-0.0574
19,ACGTTCAT,0.132
20,AGGTCGAT,-0.167
21,GGCTTCCC,-0.334
22,GATACGAC,-0.0987
23,CATCGAAC,-0.194
24,ACGGCAGA,-0.152

row,Sequence,PBM E-score
1,AAACTACA,0.273
2,GCCTGGGA,0.102
3,ACTGATCG,-0.149
4,ATAATGCG,0.149
5,GGCTCCCC,-0.124
6,CGGGATAC,-0.161
7,ATCATGTG,0.198
8,AACTTAGT,-0.042
9,AGTTCCTA,0.433
10,AGCACCCA,-0.0276
11,GAGGGGGA,-0.298
12,ATACGAAC,0.115
13,GCCATGGC,-0.261
14,ACAGAAGC,-0.143
15,CTCCCAGA,-0.0663
16,GAGAAGTA,-0.0782
17,ATTGCACA,0.0652
18,CGCACGAC,-0.0534
19,CGGGGAGC,-0.212
20,AGTGTGAT,0.0336
21,ACGCACAC,0.204
22,ATAAGCGA,0.0612
23,CGTCACAG,-0.0995
24,CCGACAAC,-0.0527

row,Sequence,PBM E-score
1,AATGAGAA,0.0624
2,CCTGTACC,0.151
3,CCCGAGGG,-0.101
4,GTGAAGTA,0.0411
5,TATAACAA,0.195
6,ATTTCGTC,0.0441
7,CCTGTCAC,0.0213
8,ACCCACCT,-0.292
9,AGTCGAAT,-0.205
10,AGGTGGGC,-0.0807
11,AACCGTTC,0.00589
12,GCACTTCC,-0.21
13,AAAGGCGG,0.0743
14,TAGGCAAA,0.48
15,AATGAGGC,0.158
16,GCAATCAC,-0.008
17,ATTCCCAC,-0.101
18,ACCGATTA,0.0858
19,AATAGGTC,0.0378
20,AATACCTG,0.123
21,ACTCGCTA,0.0321
22,AATAGCGA,0.184

# Source: the supplement of paper PMC3334620
